Some of the results follow. These are noisy estimates, calculated here from bound and input reads.
The sequences below were run against T1, Pho4 (S. cerevisiae) (UniProt P07270) (assay: relative binding free energy (BET-seq); higher = weaker binding). Details: reference: library average.
T1 sequence: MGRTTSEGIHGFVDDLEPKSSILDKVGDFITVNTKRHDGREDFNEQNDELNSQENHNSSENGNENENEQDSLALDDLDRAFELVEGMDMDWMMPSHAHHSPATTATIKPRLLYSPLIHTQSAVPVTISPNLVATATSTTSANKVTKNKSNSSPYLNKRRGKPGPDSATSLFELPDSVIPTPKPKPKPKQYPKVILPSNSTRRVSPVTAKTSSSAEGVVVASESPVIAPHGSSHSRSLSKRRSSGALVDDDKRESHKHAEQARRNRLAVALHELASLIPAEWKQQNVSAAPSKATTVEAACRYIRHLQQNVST

Sequence	relative binding free energy [kcal/mol]
TGTCTCACGTGGCGTG	-0.07
GTTGGCACGTGAGTTT	0.15
GTTACCACGTGGTTTG	0
GTGATCACGTGATCGT	0.27
TGTAGCACGTGATTAA	-0.03
TTGCTCACGTGTCTGG	0.3
ATAGTCACGTGGAGTC	0.22
TCAGGCACGTGGGGTA	-0.27
TGGTTCACGTGATCAT	0.22
GGTCGCACGTGTAGGA	0.04
TTGTCCACGTGGGAGT	-0.18
TAATCCACGTGTTATG	0.2
TATAGCACGTGCGTGG	-0.07
CGCGTCACGTGGGTGT	-0.1
TATTCCACGTGGGGGG	-0.05
GTTTTCACGTGCATGT	0.24
GTATTCACGTGGGGAG	0.17
TTGGGCACGTGTAAGG	0.09
GAGTACACGTGGCGGT	0.12
AAGTGCACGTGTGTTA	-0.07
GCAGGCACGTGGGTCG	-0.29
TTATTCACGTGTTCAA	0.12
TATGTCACGTGAGGGT	0.31

Sequence	relative binding free energy [kcal/mol]
CTGTTCACGTGGGAGA	0.14
TTTAACACGTGCGTAT	-0.09
ATTGCCACGTGGGGCT	-0.2
AACGTCACGTGTTGGT	0
TAGGTCACGTGGGGAC	0.06
GATTTCACGTGCTAGG	0.21
CGGGACACGTGAGGAT	0.25
TTCAGCACGTGGCGTT	-0.21
TCGGTCACGTGGGGTA	-0.09
TTATTCACGTGGTCAT	0.28
TGCTTCACGTGAGGGC	0.44
GGGGGCACGTGAATGG	0.19
TTGCTCACGTGTAGAG	0.34
TAAGCCACGTGTTGGT	-0.09
GGGGGCACGTGTAGGA	-0.05
TTCGTCACGTGTTTAT	0.09
AGGGTCACGTGTGGAG	0.13
TTAGACACGTGTTAAA	0.18
ATTTGCACGTGTGATT	0.16
TTTAACACGTGATGAT	0.19
AGGGTCACGTGTGAAA	0.25
TTCGGCACGTGCGGTG	-0.19
TTGCTCACGTGGGAAT	0.16

Sequence	relative binding free energy [kcal/mol]
AGCTTCACGTGGTGCG	0.18
TTAATCACGTGTAAGT	0.21
AAGTGCACGTGGTATT	-0.13
GGTGTCACGTGTAAGC	0.23
GAAGGCACGTGGTGGC	-0.24
CGGCGCACGTGTTGTT	-0.12
TTTTACACGTGCATTA	0.03
CGGTACACGTGAAAGT	0.44
AAGTTCACGTGTTTTG	0.25
CTATTCACGTGAGTGG	0.33
ATATGCACGTGGGGGC	-0.18
GTCATCACGTGTTGTG	0.1
AAGTGCACGTGTGGCA	-0.04
GGTCTCACGTGGTGAT	0.24
GACGTCACGTGGGATG	0.1
GATGGCACGTGTATGT	0
TGGGGCACGTGCGAGG	-0.2
ATAATCACGTGGAATG	0.08
GGAGTCACGTGAGAGC	0.29
GGAATCACGTGCAGGG	0.07
GCACGCACGTGGGGGG	-0.28
TGTTGCACGTGATTAT	0.1
GGTATCACGTGTTTTT	0.17

Sequence	relative binding free energy [kcal/mol]
AGGGACACGTGTCTTG	0.12
TGTGGCACGTGCTAGG	-0.03
ATGTGCACGTGTTCAA	-0.1
TTATGCACGTGATTCG	-0.07
ACGGCCACGTGGTGTT	-0.16
TTAGACACGTGGGACT	0
TAGGTCACGTGATTCA	0.25
AACGGCACGTGCGGGG	-0.25
ATGTACACGTGAGGGG	0.29
TGTCTCACGTGTTATG	0.2
GTTGGCACGTGCAATG	-0.07
TGGGGCACGTGGCACT	-0.13
GGTGGCACGTGTGGAC	0.05
GATGTCACGTGACGGG	0.29
AGTAGCACGTGTTGTG	-0.02
TTTACCACGTGTGATT	-0.06
CGGGTCACGTGTCGGG	0.12
GTCTGCACGTGGTTCT	-0.02
GAAGACACGTGGTTGT	0.04
TGTACCACGTGAGGGG	0.08
GTTGGCACGTGGGTCG	-0.2
TACAGCACGTGAGGGT	0.1
TGGTTCACGTGAACGT	0.23

Sequence	relative binding free energy [kcal/mol]
TGAGGCACGTGCGGGA	-0.18
TTAAGCACGTGGCCGG	-0.09
GGTCTCACGTGTACGG	0.17
TGAAGCACGTGAGATG	0.23
CTTTGCACGTGTAGTT	0.04
TGAGGCACGTGTAGTA	-0.01
CGGTTCACGTGTTGCA	0.22
TGGTCCACGTGTGCGG	-0.01
GGATGCACGTGGAGTC	0.09
TATGTCACGTGTGGCA	-0.07
TGAGGCACGTGAACGT	-0.04
TGGTACACGTGGCCGG	-0.14
AAGTACACGTGATGTG	0.34
CATTTCACGTGAGGTT	0.47
TGGGGCACGTGAACAG	0.08
AGGGACACGTGGATGA	0.06
AGGTTCACGTGAATCT	0.35
GGGCTCACGTGTAAGG	0.41
GGGTGCACGTGATTGC	0.12
ATAGACACGTGAGGAG	0.39
GGCTTCACGTGTATTA	0.3
GCATTCACGTGGTGGT	0.14
TAAGGCACGTGATGGC	0

Source: the BET-seq Pho4 binding data (Le et al. 2018)
